Source: patent US20200270335A1 (Biogen, published 2020)

T1: Recombinant human Kremen-2 (R&D Systems), biotinylated (human, UniProt Q8NCW0 26-364, limits assumed, biotinylated with EZ-Link NHS-PEG4-Biotin)
T1 construct: Bought protein; also called Kremen-biotin
T1 sequence (looked up): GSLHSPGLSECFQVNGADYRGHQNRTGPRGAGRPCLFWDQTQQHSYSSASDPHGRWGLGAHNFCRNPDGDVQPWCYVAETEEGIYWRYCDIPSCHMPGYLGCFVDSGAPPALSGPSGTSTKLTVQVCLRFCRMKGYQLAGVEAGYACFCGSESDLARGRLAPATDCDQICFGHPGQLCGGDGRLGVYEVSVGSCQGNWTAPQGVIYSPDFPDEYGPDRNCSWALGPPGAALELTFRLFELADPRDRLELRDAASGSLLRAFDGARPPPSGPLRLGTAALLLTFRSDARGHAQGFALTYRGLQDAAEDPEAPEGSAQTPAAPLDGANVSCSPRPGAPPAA


Assays:
[1] = target: T2, LRP6 of Super TopFlash (STF, HEK293) cells (UniProt O75581 20-1613, limits assumed); test: cell-based or functional assay
[2] = target: T3, human LRP6 on huLRP6-expressing BaF3 cells (human, UniProt O75581 20-1613); test: FACS competition on huLRP6-expressing BaF3 cells; free LRP6 detected with anti-LRP6 antibody YW211.31.57
T3 construct: whole, on cells; also called Lipoprotein receptor like protein 6

[3] = target: T2, LRP6 of Super TopFlash (STF, HEK293) …; test: cell-based or functional assay; remark: listed apart in the source
[4] = target: T1, Recombinant human Kremen-2 (R&D …); test: ELISA, Kremen-biotin on plate-coated HSA-huDKK2-C2
[5] = target: T1, Recombinant human Kremen-2 (R&D …); test: ELISA, Kremen-biotin on plate-coated variant, against ACE464

Row | IC50, inhibition of Wnt3a stimulated Super TopFlash luciferase reporter [1] [nM] | IC50 [2] [nM] | % pLRP6/LRP6 at 1000 nM HSA-DKK2 [3] [%] | binding result [4] | Percent of ACE464 binding @ 5 µg/ml [5] [%] | Binder
1 | 92 | 59 | – | – | – | ACE486 HSA-GS-huDKK2 C2 ([…]), HSA […], wild-type (ligand, From CHO cells; also called pACE486; HSA-hu DKK2 […] C2 […]) [skipping about 600 residues]GSHIKGHEGDPCLRSSDCIEGFCCARHFWTKICKPVLHQGEVCTKQRKKGSHGLEIFQRCDCAKGLSCKVWKDATYSSKARLHVCQKI
2 | 51 | 72 | 68 | binds | – | ACE464 HSA-GS-huDKK2 C2 ([…]), wild-type (ligand, From CHO cells; […] give that major form; also called pACE464) [skipping about 600 residues]GSHIKGHEGDPCLRSSDCIEGFCCARHFWTKICKPVLHQGEVCTKQRKKGSHGLEIFQRCDCAKGLSCKVWKDATYSSKARLHVCQKI
3 | 110 | 61 | – | – | 64 | BKM232 HSA-DKK2 ([…]) K216S_H223T (ligand, ACE486 framework; residues 1-20 are the signal peptide; also called pBKM232; BKNA232) [skipping about 600 residues]GSHIKGHEGDPCLRSSDCIEGFCCARHFWTKICKPVLHQGEVCTSQRKKGSTGLEIFQRCDCAKGLSCKVWKDATYSSKARLHVCQKI
4 | 300 | 400 | – | – | 87 | BKM231 HSA-DKK2 ([…]) K202E (ligand, ACE486 framework; residues 1-20 are the signal peptide; also called pBKM231; BKNA231) [skipping about 600 residues]GSHIKGHEGDPCLRSSDCIEGFCCARHFWTEICKPVLHQGEVCTKQRKKGSHGLEIFQRCDCAKGLSCKVWKDATYSSKARLHVCQKI
5 | – | 900 | – | – | 73 | BKM230 HSA-DKK2 ([…]) R197E (ligand, ACE486 framework; residues 1-20 are the signal peptide; also called pBKM230) [skipping about 600 residues]GSHIKGHEGDPCLRSSDCIEGFCCAEHFWTKICKPVLHQGEVCTKQRKKGSHGLEIFQRCDCAKGLSCKVWKDATYSSKARLHVCQKI
6 | 130 | – | – | – | 53 | BKM225 HSA-DKK2 ([…]) K220N-gly (ligand, ACE486 framework; residues 1-20 are the signal peptide; K220N was designed as a glycosylation motif; also called pBKM225; HSA-huDKK2 C2 K220N) [skipping about 600 residues]GSHIKGHEGDPCLRSSDCIEGFCCARHFWTKICKPVLHQGEVCTKQRKNGSHGLEIFQRCDCAKGLSCKVWKDATYSSKARLHVCQKI
7 | 57 | 140 | 64 | – | 62 | ACE504 HSA-huDKK2 C2 K240E/K243E (ligand, also called pACE504) [skipping about 600 residues]GSHIKGHEGDPCLRSSDCIEGFCCARHFWTKICKPVLHQGEVCTKQRKKGSHGLEIFQRCDCAKGLSCEVWEDATYSSKARLHVCQKI
8 | 150 | 800 | 110 | – | 49 | BKM229 HSA-DKK2 ([…]) K216E_K220E (ligand, also called pBKM229; BKNA229) [skipping about 600 residues]GSHIKGHEGDPCLRSSDCIEGFCCARHFWTKICKPVLHQGEVCTEQRKEGSHGLEIFQRCDCAKGLSCKVWKDATYSSKARLHVCQKI
9 | 96 | 120 | – | – | 64 | ACE502 HSA-huDKK2 C2 R185N (ligand, R185N was designed as a glycosylation motif; also called pACE502) [skipping about 600 residues]GSHIKGHEGDPCLNSSDCIEGFCCARHFWTKICKPVLHQGEVCTKQRKKGSHGLEIFQRCDCAKGLSCKVWKDATYSSKARLHVCQKI
10 | 190 | 1000 | 81 | – | 80 | ACE505 HSA-huDKK2 C2 K216E/K250E (ligand, also called pACE505) [skipping about 600 residues]GSHIKGHEGDPCLRSSDCIEGFCCARHFWTKICKPVLHQGEVCTEQRKKGSHGLEIFQRCDCAKGLSCKVWKDATYSSEARLHVCQKI
11 | 34 | 21 | – | – | 63 | BKM227 HSA-DKK2 ([…]) H223E (ligand, ACE486 framework; residues 1-20 are the signal peptide; also called pBKM227; BKNA227) [skipping about 600 residues]GSHIKGHEGDPCLRSSDCIEGFCCARHFWTKICKPVLHQGEVCTKQRKKGSEGLEIFQRCDCAKGLSCKVWKDATYSSKARLHVCQKI
12 | 130 | 51 | – | – | 44 | BKM226 HSA-DKK2 ([…]) K220E (ligand, ACE486 framework; residues 1-20 are the signal peptide; also called pBKM226) [skipping about 600 residues]GSHIKGHEGDPCLRSSDCIEGFCCARHFWTKICKPVLHQGEVCTKQRKEGSHGLEIFQRCDCAKGLSCKVWKDATYSSKARLHVCQKI
13 | 170 | 300 | – | – | 122 | ACE506 HSA-huDKK2 C2 K250E (ligand, ACE486 framework; residues 1-20 are the signal peptide; also called pACE506) [skipping about 600 residues]GSHIKGHEGDPCLRSSDCIEGFCCARHFWTKICKPVLHQGEVCTKQRKKGSHGLEIFQRCDCAKGLSCKVWKDATYSSEARLHVCQKI
14 | 66 | 42 | – | – | 117 | ACE507 HSA-huDKK2 C2 S248N/K250S (ligand, ACE486 framework; residues 1-20 are the signal peptide; Partly glycosylated at the engineered 248-NSS site; also called pACE507; S248N/K205S (as misprinted)) [skipping about 600 residues]GSHIKGHEGDPCLRSSDCIEGFCCARHFWTKICKPVLHQGEVCTKQRKKGSHGLEIFQRCDCAKGLSCKVWKDATYNSSARLHVCQKI
15 | 130 | 300 | 73 | – | 52 | BKM228 HSA-DKK2 ([…]) K216E_H223E (ligand, also called pBKM228; BKNA228) [skipping about 600 residues]GSHIKGHEGDPCLRSSDCIEGFCCARHFWTKICKPVLHQGEVCTEQRKKGSEGLEIFQRCDCAKGLSCKVWKDATYSSKARLHVCQKI
16 | 82 | 65 | 79 | – | 34 | BKM233 HSA-DKK2 ([…]) K216S_K220S (ligand, also called pBKM233; BKNA233) [skipping about 600 residues]GSHIKGHEGDPCLRSSDCIEGFCCARHFWTKICKPVLHQGEVCTSQRKSGSHGLEIFQRCDCAKGLSCKVWKDATYSSKARLHVCQKI
17 | 410 | – | – | – | 40 | ACE503 HSA-huDKK2 C2 K202E/K220E (ligand, ACE486 framework; residues 1-20 are the signal peptide; also called pACE503) [skipping about 600 residues]GSHIKGHEGDPCLRSSDCIEGFCCARHFWTEICKPVLHQGEVCTKQRKEGSHGLEIFQRCDCAKGLSCKVWKDATYSSKARLHVCQKI
